The source gives no read counts; variants with many changes may rest on few reads.
B1: LINE1-mini (parent)
chain: GGCAGAGCUCAACACAGCGUGGCAAAGUGGCUGUGGCUAGACUGCC

Variants of: B1
Assay: self-cleavage, relative activity (ratio to wild type); higher = more cleavage; in vitro, sequencing; the parent is a self-cleaving ribozyme

Variant	self-cleavage
C10A C23U C31G U43C	0.01
A12C G17C G22U G29C G35U	0.02
C8G C18U U32C	0.02
A11C A12G A39G	0
G2A A12U G22U	0.2
U20C G29C U32C	0.08
U9G G17A U34G	0.08
A25G G35C U43G	0.01
G1U A25G A26C G44C	0.31
C10A A16C C31G	0.02
U9A G17A G21A U38A	0.15
G5U C10U U20C G30A	0.04
G1U A16G A26U G40C	0
C3G C10A G29C G33C U34A	0.01
G2A A4G C15U C42G	0.01
G7U G21C G36A A41C	0.17
G2U G7U C8A U9A A24U A26G	0.06
G7A G36A C42G	0.17
A16G U34A C45U	0
G1U A12G A14U C23A A39G C45U	0
A4G G5A C46A	0.08

Variant	self-cleavage
U9A C13G G36C A41G	0.03
A11U A12C C42G	0.01
G5C A6U C8G C10A A24C	0.01
G2C A6C A24C C45A	0.02
G1A C3A C13A U28C	0.9
C13A G33A U38G C46U	0.01
A25G G30C U34C G35C C42A	0
C13A G17C G36C C45G	0.01
A14U G19U G22A	0.67
A11C G22U U32G G40U A41U	0
G5C G33C C42U	0.03
A11U G22A U38A U43G C46U	0
A16G C31U A39U G40U	0.01
A4C C8U G17A C23A A26U	0.23
A12C U20C C45A	0.01
G5U A12C C15A A24C G27U	0.04
G1C A16G G30A U32C	0.03
C3G U9C A16C C45U	0
G5A A11C G30A	0.02
A11U G35U C45A C46U	0.01
C18G C37G G40A	0.09

Variant	self-cleavage
A14G A16C G17U	0.05
G5U C8G A12G G27U G29U U43C	0.02
G2C A16U G19A G29C	0.04
G2A A4C A11U A12G A16U G17C C31A	0.01
G19U A25U C31G	0.09
A11G A24G C45A	0
A6U U34G C46A	0.18
A4U U20A C45U	0.06
G1A G7A C15G A16U C31A	0.35
A12G G19C U32A C37G	0.02
C8G A25U U28C U34G U43A	0.03
G1C G7U U9C U28C C31U G33U G40C C45A	0.03
A14U C18A A25U C37G	0.2
C23G A41G C46A	0.12
C8U G30A U43G	0.21
U9A A25G G29C	0.07
A6C G19U A26U	0.82
C10G A16U C31U	0
A24G G35U C46U	0.11
G1U C10U C23U G30U G35U	0.01
A4U G22C G29A G35A	0.06

Variant	self-cleavage
A4G G7A A12C C15A U28G C45A	0.01
A12C A14U G21C C23A A25U U28C U43A	0.04
G2C C18U G36U	0.02
C37G U38G G40C	0.04
C10A U20G C31U G33A	0.01
G19C G22A G40A	0.04
G5U G29A C31U U34A A41G U43C	0
A6G C13U A14G G35C	0.09
C8G G35U C42U	0.03
U20A C23U G29U	0.29
C3U G21A A24G	0.73
A6C A11G C13G G19A C37A U38A G40A G44U	0.04
C18G U43A C46G	0.01
G7U A14C U43A C46A	0.18
A4U A24G A41G	0.12
C3G A4C C8U C10A	0.03
G7U U9A A16G G30A	0.03
C18U U20A C23G G30U	0.58
G1U A11G A16C G19C C31U	0
G17C U34G G36C C37G A39U	0.01
